Consider three molecules from PubChem BioAssay AID1918936 (Molecular Pharmacology Branch, DTP, NCI, 2023).

The experiment has as its system 349418-098-R-PDC complex spheroid viability. Description: Anticancer human tumor 349418-098-R-PDC patient-derived lung adenocarcinoma cell line growth inhibition. The settings on record: stronger effect = lower value. An excerpt: Multicellular complex tumor spheroid response to LSD1 Inhibitor Iadademstat in combination with a variety of drugs and investigational agents in selected tumor cell lines
The current study was undertaken to assess response to LSD1 inhibitors in combination with standard-of-care drugs and investigational agents in solid tumor complex spheroid models as well as in the K-562 leukemia. Complex spheroids include a stromal component modeled by human endothelial cells (HUVEC) and fibroblasts modeled by human mesenchymal stem cells (MSCs). The concentration ranges selected for each drug and investigational agent were based upon clinically achievable concentrations if the clinical Cmax of the agent was known.
Compounds. The drugs and investigational agents used in this study are listed on Table 1. All of the agents used, including staurosporine (NSC755774) and gemcitabine (NSC613327), were obtained from the Developmental Therapeutics Program, NCI. FDA-approved anticancer drugs are available from the NCI at http://dtp.nci.nih.gov/branches/dscb/oncology_drugset_explanation.html. Drugs and investigational agents were >95% pure by proton nuclear magnetic resonance (NMR) and liquid chromatography/mass spectrometry (LC/MS). Stock solutions were prepared at 400x in DMSO, stored at -70 degrees C, and diluted in fresh medium prior to their use. The final concentration of DMSO in cell culture wells never exceeded 0.25% (v/v). The FDA-approved anticancer drug set is available from the Developmental Therapeutics Program at https://dtp.cancer.gov/organization/dscb/obtaining/available_plates.htm. All drugs and investigational agents were tested over a range starting from a high concentration at or near the clinical Cmax and decreasing in half-log increments. If the clinical Cmax for an agent had not been determined, the highest concentration tested was 10 microM.
Cell Lines. The patient-derived cancer cell (PDC) lines: 292921-168-R-J2-PDC, K24384-001-R-PDC, and 521955-158-R2-J5-PDC pancreatic carcinomas, 556581-035-R-J1 ovarian carcinoma, 324938-238-R-J1-PDC, 855422-203-R-J1-PDC and 883617-216-R-J1-PDC urothelial bladder carcinomas, 743489-274-T-PDC renal cell carcinoma, 138582-R-J1 Merkel cell tumor, K60290-347-R-J1 and K57222-313-R-J1-PDC glioblastomas, 653999-131-R-J2-PDC, LG0703-F948-PDC, and 349418-098-R-PDC non-small cell lung carcinomas, 885512-296-R-J2-PDC, 171881-019-R-J1-PDC breast carcinomas and 186277-243-T-J2-PDC and 233499-124-R-J2-PDC colon carcinomas were obtained from the NCI Patient-Derived Models Repository (PDMR, https://pdmr.cancer.gov). The established cell lines NCI/ADR-RES (RRID:CVCL_14520 and OVCAR-5 (RRID:CVCL_1628) ovarian carcinomas, 786-O (RRID:CVCL_1051) and A498 (RRID:CVCL_A498) renal cell carcinoma, NCI-H211 (ATCC, cat. CRL-5824; RRID:CVCL_1529), NCI-H196 (ATCC, cat. CRL-5823, RRID:CVCL_1509), SW 1271 (ATCC, cat. CRL-2177, RRID:CVCL_1716) and NCI-H1876 (ATCC, cat. CRL-5902, RRID:CVCL_1503) small cell lung carcinomas, MDA-MB-231 (RRID:CVCL_0062) and MDA-MB-468 (RRID:CVCL_0419)breast carcinomas (10-12). Pooled donor human umbilical vein endothelial cells (HUVEC, Lonza, cat. CC-2519) and human mesenchymal stem cells (hMSC, Lonza, cat. PT-2501) were purchased from Lonza (Walkersville, MD).
Cell Culture. All cells were maintained in an incubator at 37 degrees C and 5% CO2 with 95% humidity. The PDC lines were cultured according to standard operating procedures established by the NCI PDMR (https://pdmr.cancer.gov). Briefly all PDCs were thawed and cultured in Matrigel-coated flasks prepared with a working solution of 1X Ham's F-12 nutrient mix, without supplementation (Invitrogen, Waltham, MA, cat. 11765054), 100 U/mL penicillin-streptomycin (Invitrogen, cat. 15140122), and 2.5% Matrigel (Corning Inc., Corning, NY, cat. 354248) for the first three passages. […]

Certain results were filed several times, with different values. Only these are listed. The source may hold further records. Values given together repeat one measurement across runs, samples, wells, individuals or studies. Additions like (4×) give the number of equal values in this list. Marks such as [2022-09] give the month of the run.
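Also: spheroids exposed to agents for seven days before readout; 100% = DMSO vehicle control wells.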

On to `NC1CCC(NC2CC2c2ccccc2)CC1` (configuration not stated), for which the viability, T/C (compound alone 0.1 µM) is 104 (2×), 103 (4×), 98.2, 102 (3×), 96.3 (2×), 110 (2×), 109 (2×), 99.4, 107, 92.9, 82.2, 108, 90.9, 114, 93.7%; the viability, T/C (compound alone 1 µM) was 93.2, 97.9, 111 (2×), 112 (3×), 94.8, 115, 85.4, 120, 106 (2×), 103, 108 (2×), 113, 109, 88.3, 107 (3×), 104, 116, 105%; the viability, T/C (compound alone 10 µM) is 88.1, 89.3, 86.1, 102 (3×), 90.6, 96.8, 90.5, 95.3, 81.5, 84.5, 92.2, 80.8, 85.6, 85.4, 96.9, 84.2, 85.2, 83.7, 88.8, 83.4, 108%.

Consider `NC1CC1c1ccc(-c2cccc(O)c2)cc1` (configuration not stated), for which the viability, T/C by setting is: (compound alone 0.316 µM) 121 (2×), 104, 116 (2×), 109 (2×), 118, 117, 112, 111, 107, 106 (2×), 122, 114 (2×), 119, 108 (2×), 113, 103, 110, 95.9, 81.8%; (compound alone 3.16 µM) 104, 117, 116, 108 (3×), 120, 119 (2×), 121, 112 (3×), 113, 115, 110, 109 (2×), 123 (2×), 111, 102, 107, 106, 92.5%; (compound alone 10 µM) 85.4, 92.8, 95.2, 78.8, 97, 97.5, 100, 85.5, 93.9, 94.8, 102, 94.4, 66.8, 99.3, 106, 88.3, 98.4, 99.5, 93.3, 91.1, 93.5, 86.5, 78.7, 70.4, 81.9%.

`O=C(C=Cc1cccc(S(=O)(=O)Nc2ccccc2)c1)NO`: the viability, T/C (compound alone 3 µM) is 1.39% [2022-01] and 91.5% [2022-02].
